# Source: PubChem BioAssay AID504332 (National Center for Advancing Translational Sciences (NCATS), 2011)
# Where “and” joins values, the source holds several entries; their conditions need not be identical. Equal values may be shown once. The campaign covered roughly 350,000 compounds. About 31,000 (8.9%) were called active. Inconclusive results, whose numbers are uncertain, are shown with a selection of clear calls. The call rests on the fitted dose curve; in most records, active means well fitted inhibition curve with a large enough effect; inconclusive means small, poorly fitted or top-dose-only effect; inactive means no such curve, though single readings can be large or run the other way. A potency beside an inconclusive call is a rough fit, not a confirmed value.
# Molecular target: Histone-lysine N-methyltransferase EHMT2 (Homo sapiens) (UniProt Q96KQ7)
# Assay: qHTS Assay for Inhibitors of Histone Lysine Methyltransferase G9a; further: nearly all actives have a fitted effect of over 75% in size
# Conditions: G9a H3K9 monomethylation, AlphaScreen, 2 h; activity, negative = inhibition: at 59 µM (top of the series) unless noted
# Procedure, shortened: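 Quantitative HTS format: methyltransferase activity on a biotin-tagged H3K9 peptide is measured by AlphaScreen, using a rabbit anti-monomethyl-H3K9 antibody with streptavidin donor and anti-IgG acceptor beads. Final levels are 20 nM enzyme, 500 nM peptide, 20 uM SAM; 2 h RT.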
# On the % scale 0 is the no-effect control and ±100 the full control effect; potency means the concentration at half of the fitted maximal effect; tags describe the fitted curve by direction and shape.
# Sequence of UniProt Q96KQ7 (Q96KQ7 whole entry, looked up): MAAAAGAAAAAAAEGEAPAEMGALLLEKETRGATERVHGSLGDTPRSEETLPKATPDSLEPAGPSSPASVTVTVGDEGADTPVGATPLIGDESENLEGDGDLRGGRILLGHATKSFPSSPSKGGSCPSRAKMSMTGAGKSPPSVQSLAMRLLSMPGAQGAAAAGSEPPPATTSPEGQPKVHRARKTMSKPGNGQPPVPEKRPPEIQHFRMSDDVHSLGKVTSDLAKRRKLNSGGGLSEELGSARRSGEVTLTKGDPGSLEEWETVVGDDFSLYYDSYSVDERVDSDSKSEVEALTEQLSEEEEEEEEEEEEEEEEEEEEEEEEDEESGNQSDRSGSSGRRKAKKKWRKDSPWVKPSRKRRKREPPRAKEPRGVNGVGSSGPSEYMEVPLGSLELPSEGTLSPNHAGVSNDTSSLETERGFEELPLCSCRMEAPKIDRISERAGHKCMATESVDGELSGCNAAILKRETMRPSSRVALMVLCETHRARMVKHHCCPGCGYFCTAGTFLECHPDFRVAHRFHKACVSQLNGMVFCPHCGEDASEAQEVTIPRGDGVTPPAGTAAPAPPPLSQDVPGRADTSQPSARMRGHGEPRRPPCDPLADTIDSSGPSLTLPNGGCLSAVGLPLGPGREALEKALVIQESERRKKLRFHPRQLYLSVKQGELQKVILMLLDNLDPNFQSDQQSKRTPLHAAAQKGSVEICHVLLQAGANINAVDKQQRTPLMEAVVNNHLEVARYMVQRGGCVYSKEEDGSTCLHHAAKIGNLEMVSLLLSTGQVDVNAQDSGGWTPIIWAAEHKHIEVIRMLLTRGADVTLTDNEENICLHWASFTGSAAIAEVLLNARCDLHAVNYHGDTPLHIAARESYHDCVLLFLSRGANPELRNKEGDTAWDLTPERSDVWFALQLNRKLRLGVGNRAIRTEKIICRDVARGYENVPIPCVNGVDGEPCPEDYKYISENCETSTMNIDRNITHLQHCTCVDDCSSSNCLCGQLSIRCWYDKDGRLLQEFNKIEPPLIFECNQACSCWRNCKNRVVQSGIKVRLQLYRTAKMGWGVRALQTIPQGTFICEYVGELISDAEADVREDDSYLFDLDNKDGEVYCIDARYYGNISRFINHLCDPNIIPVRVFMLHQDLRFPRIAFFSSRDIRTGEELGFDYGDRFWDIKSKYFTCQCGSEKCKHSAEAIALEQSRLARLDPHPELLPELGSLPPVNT
SMILES,Potency,"activity, negative = inhibition"
O=C(O)CSc1nc2sc3c(c2c(=O)n1-c1ccccc1)CCC3,"inconclusive: 50.1 µM [inhibitor, partial curve, poor fit]",
Cc1nn(-c2ccc(N3CCCCC3)nn2)c(C)c1CCC(=O)Nc1ccc(F)cc1F,inactive,
CCc1ccccc1NC1c2ccccc2C(=O)N1Cc1ccco1 (stereo not drawn),"inconclusive: 79.4 µM [inhibitor, single point]",
CCOC(=O)C1=C(C)N(c2ccc(C)c(C)c2)C(=O)/C1=C\c1ccco1,active: 35.5 µM,
CC(C)CC1Nc2ccc(C(=O)NCCCN3CCOCC3)cc2NC1=O (stereo not drawn),"inconclusive: 89.1 µM [inhibitor, single point]",
O=C(CSc1n[nH]c(-c2ccncc2)n1)Nc1ccc(Cl)c(C(=O)O)c1,"inconclusive: 89.1 µM [inhibitor, single point]",
Cc1ccc(CN(C(=O)Cn2nnc3ccccc32)C(C(=O)NCc2ccco2)c2cccs2)cc1 (stereo not drawn),"inconclusive: 22.4 µM [inhibitor, single point]",
COc1cc(OC)cc(N2C(=O)N(Cc3ccc(C(C)(C)C)cc3)c3ccccc3S2(=O)=O)c1,inactive,
N#C/C(=C\c1ccc(O)c([N+](=O)[O-])c1)C(=O)NCc1ccccc1,"inconclusive: 44.7 µM [inhibitor, partial curve, poor fit]",
S=C1NC(c2ccccc2)=NCN1c1ccc(Br)cc1,"inconclusive: 89.1 µM [inhibitor, single point]",
COc1ccc(CN2CCc3ccccc3C2)cc1Br,active: 2.24 µM,
CCOc1ccc(C(=O)c2ccc(OC)c(O)c2O)cc1,,inactive: -45.9% [at 2.33 µM]
CCOC(=O)N1CCN(C(=O)CN(c2ccccc2F)S(=O)(=O)c2ccc(C)cc2)CC1,inactive,
O=C1NCN(c2ccccc2)C12CCN(CCCC(c1ccc(F)cc1)c1ccc(F)cc1)CC2,active: 35.5 µM and active: 10 µM,
Cc1cc(C)cc(NC(=O)c2ccccc2NC(=O)CCC(=O)O)c1,inactive,
COc1ccc(OC(C)C(=O)Nc2ccc([N+](=O)[O-])cc2)cc1 (stereo not drawn),inactive,
Nc1c(C(=O)Nc2ccccc2Cl)c2ccccn2c1C(=O)c1ccccc1,inactive,
CCOc1ccc(NC(=O)c2c(NCc3cccc(OC)c3OC)sc3c2CCC3)cc1,"inconclusive: 28.2 µM [inhibitor, single point]",
CCOc1ccc(NC(=S)N(CCN2CCOCC2)Cc2ccc3c(c2)CCCN3CC)cc1,active: 28.2 µM,
CCCSc1nnc(CNC(=O)C23CC4CC(CC(C4)C2)C3)n1Cc1ccccc1,"inconclusive: 89.1 µM [inhibitor, single point]",
COc1ccccc1C(=O)n1nc(-c2ccco2)nc1N,,inconclusive: -56.7% [inhibitor]
O=C(C1CC(c2ccccc2O)=NO1)N1CCc2ccccc2C1 (stereo not drawn),inactive,

SMILES,Potency,"activity, negative = inhibition"
CCOc1ccc(-c2nc(N)ncc2-c2ccccc2)c(O)c1,"inconclusive: 79.4 µM [inhibitor, single point]",
O=C(NCc1cccs1)c1ccc2c(c1)N(Cc1cccc(F)c1)C(=O)c1ccccc1S2,inactive,
COc1ccc(OC)c(NC(=O)CSc2ccc3ccccc3c2)c1,"inconclusive: 1 µM [inhibitor, full curve]",
Cn1c(SCC(=O)c2ccc(F)cc2)nnc1-c1cnccn1,"inconclusive: 3.16 µM [inhibitor, full curve, poor fit]",
CCOC(=O)c1noc2nc(C)n(CC(=O)NC(C)CC)c(=O)c12 (stereo not drawn),inactive,
O=S(=O)(Nc1ccc(-n2cnnn2)cc1)c1cccc(Cl)c1,"inconclusive: 89.1 µM [inhibitor, partial curve, poor fit]",
O=C(ONc1ccc(N=NC(=O)c2ccccc2O)cc1)c1ccccc1,"inconclusive: 39.8 µM [inhibitor, single point]",
Cc1ccsc1C1NC(=O)c2ccccc2N1 (stereo not drawn),"inconclusive: 22.4 µM [inhibitor, single point]",
CC(=O)Nc1ccc(S(=O)(=O)NCCC(=O)NCCOc2ccccc2)cc1,,inactive: 20.1% [at 2.33 µM]
NC(=O)c1nn(-c2ccccc2)nc1NC(=O)CN1CCCCC1,"inconclusive: 8.91 µM [inhibitor, full curve]",
CSc1ccc(CN(C)C(=O)CCNS(=O)(=O)c2ccc(C)c(C)c2)cc1,"inconclusive: 44.7 µM [inhibitor, partial curve]",
O=C(CS(=O)(=O)c1c[nH]c2ccccc12)N1CCc2ccccc21,"inconclusive: 79.4 µM [inhibitor, partial curve, poor fit]",
CCOc1ccc(-c2cc(C)n3nc(C(N)=O)cc3n2)cc1,"inconclusive: 50.1 µM [inhibitor, partial curve, poor fit]",
COC(=O)c1c(NC(=O)Cc2coc3cc(C)ccc23)sc2c1CCC2,"inconclusive: 0.398 µM [inhibitor, partial curve, poor fit]",
O=C(COc1ccc(Cl)cc1)N1CCN(C(=O)c2cccs2)CC1,"inconclusive: 70.8 µM [inhibitor, partial curve, poor fit]",
O=C1OCC/C1=C\c1ccccc1O,"inconclusive: 14.1 µM [inhibitor, partial curve, poor fit]",
CCCn1c(=O)c2ccccc2n2c(SCc3cc(=O)oc4ccc5ccccc5c34)nnc12,"inconclusive: 3.16 µM [inhibitor, partial curve, poor fit]",
CCCCN(CC)C(=O)c1nn(C)c2c1CSc1ccccc1-2,"inconclusive: 35.5 µM [inhibitor, single point]",
C#CCOCCOCCOCCNc1nc(N2CCN(C(=O)Cn3cc(CCCN=C(N)N)nn3)CC2)nc(N2CCN(C(=O)[C@H]([C@@H](C)CC)n3cc(CCC(=O)O)nn3)CC2)n1,inactive,
CNC(=O)c1[nH]cnc1C(=O)N[C@@H](C)C(=O)OCc1ccccc1,,inactive: -9.06% [at 12.7 µM]
Cc1ccc(C(=O)N/N=c2\sc3ccccc3n2C)cc1,"inconclusive: 22.4 µM [inhibitor, single point]",
